The campaign covered roughly 310,000 compounds. About 2,200 (0.71%) showed an effect of 50% or more. The effect is printed as a negative number. The list shows a part of the results.

The target of this assay is human ether-à-go-go-related gene (hERG) potassium channel (human, UniProt Q12809). The assay can be described thus: primary screen, population patch clamp on CHO cells stably expressing hERG.
Chain of human ether-à-go-go-related gene (hERG) potassium channel (Q12809 whole entry, looked up): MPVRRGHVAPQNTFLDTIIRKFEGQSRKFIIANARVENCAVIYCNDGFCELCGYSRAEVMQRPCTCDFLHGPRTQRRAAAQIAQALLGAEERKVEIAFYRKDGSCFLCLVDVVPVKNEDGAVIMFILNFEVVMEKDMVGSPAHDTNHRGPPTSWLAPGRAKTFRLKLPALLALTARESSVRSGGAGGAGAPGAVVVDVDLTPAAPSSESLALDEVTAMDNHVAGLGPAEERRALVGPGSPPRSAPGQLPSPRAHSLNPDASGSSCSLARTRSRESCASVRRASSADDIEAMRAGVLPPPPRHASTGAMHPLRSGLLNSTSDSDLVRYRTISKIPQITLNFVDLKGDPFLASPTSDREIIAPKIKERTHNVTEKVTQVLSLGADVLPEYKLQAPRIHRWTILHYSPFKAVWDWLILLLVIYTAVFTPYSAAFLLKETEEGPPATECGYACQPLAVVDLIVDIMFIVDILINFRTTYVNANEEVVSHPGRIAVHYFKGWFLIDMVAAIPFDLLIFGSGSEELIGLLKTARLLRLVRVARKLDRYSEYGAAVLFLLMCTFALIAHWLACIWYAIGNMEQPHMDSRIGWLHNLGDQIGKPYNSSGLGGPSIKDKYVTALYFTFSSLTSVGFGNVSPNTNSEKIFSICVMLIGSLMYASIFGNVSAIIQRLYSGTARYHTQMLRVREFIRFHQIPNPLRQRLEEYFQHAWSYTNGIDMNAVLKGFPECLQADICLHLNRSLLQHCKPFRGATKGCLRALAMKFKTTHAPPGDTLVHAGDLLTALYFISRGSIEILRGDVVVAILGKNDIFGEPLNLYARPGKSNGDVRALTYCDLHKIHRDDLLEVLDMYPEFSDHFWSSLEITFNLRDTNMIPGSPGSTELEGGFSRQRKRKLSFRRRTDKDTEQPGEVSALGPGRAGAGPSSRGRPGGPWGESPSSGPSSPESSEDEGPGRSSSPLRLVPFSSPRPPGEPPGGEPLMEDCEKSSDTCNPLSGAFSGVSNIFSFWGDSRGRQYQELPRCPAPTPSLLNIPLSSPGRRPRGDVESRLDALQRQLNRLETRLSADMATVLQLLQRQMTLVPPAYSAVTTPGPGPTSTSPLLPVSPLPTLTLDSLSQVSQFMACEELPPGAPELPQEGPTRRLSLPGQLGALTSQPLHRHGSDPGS
On to `O=C(CSc1ncccn1)N1CCc2ccccc2C1`, for which the “hERG current change (%, negative = inhibition) at 1uM” value is reported as 8.6%.
For `CCC(C(=O)NCc1ccc(OC)cc1)n1nc(C)n2c(cc3occc32)c1=O` (stereo not shown), the “hERG current change (%, negative = inhibition) at 1uM” value is recorded as -0.164%.
Take `Cc1cc(NC(=O)c2ccc(S(=O)(=O)N(C)CC3CCCO3)cc2)no1` (stereo not shown): the “hERG current change (%, negative = inhibition) at 1uM” value worked out at 10%.
Then `CCOc1cccc2cc(C(=O)NCc3ccccc3Cl)c(=O)oc12`, with 14.2%; and `CCC(C)C(NC(N)=O)C(=O)Nc1ccc(OCc2ccccc2)cc1` (stereo not shown), with 11%; and `CC(=O)Nc1ccc(NC(=O)Cn2cnc(S(=O)(=O)N3CCOCC3)c2)cc1`, with 8.7%.
For `CCC(C)C(=O)N1CCc2cc(-c3csc(N)n3)ccc21` (stereo not shown), the “hERG current change (%, negative = inhibition) at 1uM” value was 20.8%.
Consider `COc1cccc(NC(=O)CN(c2ccc([N+](=O)[O-])cc2)S(=O)(=O)c2ccccc2)c1`, for which the “hERG current change (%, negative = inhibition) at 1uM” value is listed as 14.8%.
With `O=C(NNC(=O)c1sc2cccc(Cl)c2c1Cl)Nc1ccccc1`, the “hERG current change (%, negative = inhibition) at 1uM” value was determined as 13.9%.
Regarding `O=c1oc2ccccc2cc1-c1csc(Nc2nc3ccc(F)cc3s2)n1`, the “hERG current change (%, negative = inhibition) at 1uM” value came to 13.6%.
In the case of `O=c1cc(-c2c(O)c3ccccc3n(Cc3ccccc3)c2=O)[nH][nH]1`, the “hERG current change (%, negative = inhibition) at 1uM” value was determined as 6.99%.
Take `CCCCCc1ccc(-c2ccc(OC)cc2)nc1`: the “hERG current change (%, negative = inhibition) at 1uM” value worked out at 4.09%.
Take `Cc1cccc(Nc2nccc(N(C)C)c2C#N)c1`: the “hERG current change (%, negative = inhibition) at 1uM” value turned out to be 14.3%.
With `CCOC(=O)c1sc(NC(=O)c2ccccc2C(=O)O)c(C(=O)OCC)c1C`, the “hERG current change (%, negative = inhibition) at 1uM” value was 10.9%.
On to `Cc1ccc(S(=O)(=O)N2C(=O)C(C)SC2=Nc2ccccc2)cc1` (stereo not shown), for which the “hERG current change (%, negative = inhibition) at 1uM” value came to 12.1%.
For the compound `Cn1cc(S(=O)(=O)N2CCCC2)cc1C(=O)NCc1ccccc1Cl`, the “hERG current change (%, negative = inhibition) at 1uM” value was determined as 1.96%.
As to `Cc1ccsc1C(=O)NCCc1nnc2ccccn12`, the “hERG current change (%, negative = inhibition) at 1uM” value came to 13.1%.
In the case of `COc1cccc(NC(=O)C(Sc2nnc(Nc3ccccc3C)s2)c2ccccc2)c1` (stereo not shown), the “hERG current change (%, negative = inhibition) at 1uM” value was determined as 6.4%.
In the case of `Cc1cccnc1Nc1nc(-c2ccc(O)cc2O)cs1`, the “hERG current change (%, negative = inhibition) at 1uM” value is listed as -5.47%.
`CCCCN(C(=O)CSc1nnc(-c2ccccc2)n1C)c1c(N)n(Cc2ccccc2)c(=O)[nH]c1=O`: the “hERG current change (%, negative = inhibition) at 1uM” value came out at 6.42%.
Next, `Cc1cc(C)n(CC(C)O)c(=O)c1C#N` (stereo not shown): 13.3%.
In the case of `O=C1C2C3C=CC(C3)C2C(=O)N1Cc1ccccc1` (stereo not shown), the “hERG current change (%, negative = inhibition) at 1uM” value is listed as -2.1%.
Then `COc1ccc(C(=O)C(Cc2cc(C(C)=O)ccc2OC)N2CCCC2)cc1` (stereo not shown), with 8.78%.
Consider `O=C(c1ccc2oc(CCCc3ccccc3)nc2c1)N1CCCCC1CO` (stereo not shown), for which the “hERG current change (%, negative = inhibition) at 1uM” value is reported as 15.1%.
Then `CC(C)NS(=O)(=O)c1ccc(OCC(=O)Nc2ccc(F)cc2F)cc1`, with 6.77%.

Values taken from publication PMC4336329 (PLoS ONE, 2015).
